Data on 56 variants can be found in the RNAGym collection of RNA variant scans (doi:10.7554/elife.90254).

B1: LINE1-mini (parent)
chain: GGCAGAGCUCAACACAGCGUGGCAAAGUGGCUGUGGCUAGACUGCC

The source gives no read counts; variants with many changes may rest on few reads.

In this series the parent is B1. In words: self-cleavage, relative activity (ratio to wild type); higher = more cleavage; in vitro, sequencing; the parent is a self-cleaving ribozyme.
Consider GGAAGAGCUCAAAAUAGCGAGGCAAAGUGUCUGUGGCUAGACUGCC [C3A C13A C15U U20A G30U], for which the self-cleavage worked out at 0.25. Regarding GGAAGAGGUCAACACAGCGUGGAAAAGUGGCUGUAGCUAGCCUGCC [C3A C8G C23A G35A A41C], the self-cleavage was 0.05. To GGAAGAGCUCAAAACAGCGUGGCAGAGUGGCUGUGGCUAGACUGCC [C3A C13A A25G] belongs 0.08. For the variant GGAAGAGUUCAACACCGCGUGGCAAAGUGUCAGUGGCUAGACUGCC [C3A C8U A16C G30U U32A], the self-cleavage came out at 0.38. To GGAAGAGGUCAACAAAGCGUGGCAAAGUGGCUGUGGCUAGACCGCU [C3A C8G C15A U43C C46U] belongs 0.1; to GGAAGAGCUAAAAACAGCGUGGCAAAGUGGCGGUGGCUAGACUGCC [C3A C10A C13A U32G], 0.06. The figure for GGAAGAGGUCAGCAUAGAGUGGCAAAGUGGCUGUGGCAAGAAUGCA [C3A C8G A12G C15U C18A U38A C42A C46A] is 0.03.

Take GGAAGAGGUCAACACAGCGUGGCAAAGUGGCUGUGGCUAGACUGUC [C3A C8G C45U]: the self-cleavage was 0.21. The figure for GGAAGAGCUAUGCACAGCGUGGCAAAGUGGCUGUGGCUAGACUGCA [C3A C10A A11U A12G C46A] is 0.01. To GGAAGAGCUCAACAAAGCUUGGCAAAGUGGCUGUGGCUAGGCUGCC [C3A C15A G19U A41G] belongs 0.22.

On to GGAAGAGUUCAACACAGCGUGGCAAAGUAGCCGUGUCUAGACUGCC [C3A C8U G29A U32C G36U], for which the self-cleavage stood at 0.45. As to GGAAGAGCUUAUCACAGCGUGGCAAAGUGGCUGUGGCUAGAGUGCC [C3A C10U A12U C42G], the self-cleavage stood at 0.02. To GGAAGAGGUCGACGCAGCGUGGCAAAGUGGCUUUGGCUACACUGCC [C3A C8G A11G A14G G33U G40C] belongs 0.01. To GGAAGAGCUCAAGACAGCGUGGCAAAGAGGCUAUGGUUAAGCUGCC [C3A C13G U28A G33A C37U G40A A41G] belongs 0.04; to GGAAGAGUUCAACACAGCGUUGUAAAGUGGCUGUGGGUAGACUGCC [C3A C8U G21U C23U C37G], 0.11.

GGAAGAGUUCAACACAGCGUGGCACAGUGGCUGUGGCCAGACUGCG [C3A C8U A25C U38C C46G]: the self-cleavage came out at 0.12. With GGAAGAGCUCAAGACAGCGUGGCAAAGUGGCUGUGGCGAGACUGCC [C3A C13G U38G], the self-cleavage worked out at 0.02. The figure for GGAAGAGCUUAACACAGCGUGGCAAAGUGGCUGUGACUAGACUGCC [C3A C10U G36A] is 0.34; for GGAAGAGCUCAAUACAGCGUGGCAAAGUGGCUGUGGCUAGACUACC [C3A C13U G44A] it is 0.12. The figure for GGAAGAGCUUAACACAGCGUGGCAAAGUGGCUGUGGCUAGCCUGCC [C3A C10U A41C] is 0.13; for GGAAGAGAUCAACACAGCGUAGCAAAGUGGCUGUGGCUAGACUGCC [C3A C8A G21A] it is 2.39. The figure for GGAAGAGUUCAACCCAGCGUGGCGAAGUGGCUGUGGCUAGACUGCC [C3A C8U A14C A24G] is 0.49. For the variant GGAAGAGCUCAAUACAGACUGGCAAAGUGGCAGCGGCUAGACUGCC [C3A C13U C18A G19C U32A U34C], the self-cleavage worked out at 0.06. To GGAAGAGCUAAACACAGCGUAGCAAAGUGGAUGUGGCUAGACUGCU [C3A C10A G21A C31A C46U] belongs 0.05; to GGAAGAGCUGAACACAGCGUGGCAAAGUGGCUGUGGAUAGACUGCC [C3A C10G C37A], 0.02. To GGAAGAGAUCAACACAGCGUGGCAAAGUGGCUGUGGCUAGACUACC [C3A C8A G44A] belongs 0.59; to GGAAGAGUUCAACACAGCGUGGCAAAGUGGCUGUGGUUAGAAUGCC [C3A C8U C37U C42A], 0.03; to GGAAGAGGGCAACACAGAGUGGCAUAGUGGCUGUGGCUAGACUACC [C3A C8G U9G C18A A25U G44A], 0.02.

Regarding GGAAGAGCUCAAAACAGCGUGGCAAAGGGGCUGUGGCUAGACUGCC [C3A C13A U28G], the self-cleavage turned out to be 0.05. Take GGAAGAGUUCAACAGAGCGUGGGAAAGUGGCUGUGGCUAGAAUGCC [C3A C8U C15G C23G C42A]: the self-cleavage stood at 0.15.

With GGAAGAGCUGAACACAGCGUGGAAAAGUGGCUGUGCCCACACUGCC [C3A C10G C23A G36C U38C G40C], the self-cleavage came to 0.01. To GGAAGAGCUCAACAAAGCGUUGCAUGGUGGGUCUGGCUAGACUGCC [C3A C15A G21U A25U A26G C31G G33C] belongs 0.11. The figure for GGAAGAGCUCAAGACAGCGUGUCAAAGUGGCUGUGGCUAGACUGCC [C3A C13G G22U] is 1.09; for GGAAGAGCUCAAAACAGCGUGGCAAUAUGGCUGUGGCGAGACUGCC [C3A C13A A26U G27A U38G] it is 0.06. The figure for GGAAGAGCUUAACACAGCGUGGUAAAGUGGCUGUGGCCAGACUGCC [C3A C10U C23U U38C] is 0.06; for GGAAGAGCUAAACACAGCGUGGCUAAGUGGCUGUGGCUAGACUGCC [C3A C10A A24U] it is 0.07; for GGAAGAGCUCAAUACAGCGGGGCAAAGUGGCUGUGGCUAGACGGCC [C3A C13U U20G U43G] it is 1.53. For the variant GGAAGAGGUCAACACAGCGUGGCAAAGUGUCUGUGACUAGACUGCC [C3A C8G G30U G36A], the self-cleavage stood at 0.61. The figure for GGAAGAGGCCAACACAGCAUGGCAAAGUGGCUGUGGCUAGACUGCC [C3A C8G U9C G19A] is 0.75; for GGAAGAGCUCAAGACAGCGUGGCAAAGUGGCUGCGGCUAGACUGGG [C3A C13G U34C C45G C46G] it is 0.1.

As for GGAAGAGCUCAACAGACCGUGGCAAAGUGGCUGUGGCUAGACUGCC [C3A C15G G17C], the self-cleavage came to 0.33. The figure for GGAAGAGCUAAUCACAGCGUGGCAAAGUGGCUAUAGCUAGACUGCC [C3A C10A A12U G33A G35A] is 0.04; for GGAAGAGCUAAACACAGCGUGGCAUAGUGGCUGUGGCUAGACUGCC [C3A C10A A25U] it is 0.03.

GGAAGAGCUAAACACAGCGUGGCAGAGUGGCUGUGGCUAGACUGCC [C3A C10A A25G]: the self-cleavage came out at 0.04. The figure for GGAAGAGUUCAACACAGCGUGGCAAAGUGGCUGUGGCUAGACUGCA [C3A C8U C46A] is 1.1; for GGAAGAGCUCAAGAGAGCGUGGCACAGUGGCUGUGGGUAGACUGCC [C3A C13G C15G A25C C37G] it is 0.07. On to GGAAGAGUUCAACACUGCGUGCCAAAGUGGCUGUGGCUACACUGCC [C3A C8U A16U G22C G40C], for which the self-cleavage stood at 0.15.

For the variant GGAAGAGCUCAAAACAGCGUGGCAAAGUGGCUCUGGCUUGACUGAC [C3A C13A G33C A39U C45A], the self-cleavage was determined as 0.05.

As for GGAAGAGUUGAACACAACGUGGCAAAGUGGCUGUGGCCAGACUGCC [C3A C8U C10G G17A U38C], the self-cleavage is 0.01.

For the variant GGAAGAGAUCAACACAGCGUGGCAAAGUGGCUGUGGCAAGACUGCC [C3A C8A U38A], the self-cleavage is 0.7. The figure for GGAAGAGCUCAAGACAGCGUGGCAAAGUGGGUGUGGCUAGACUGCC [C3A C13G C31G] is 0.12. The figure for GGAAGAGCUCAAGACAGCGUGACAAAGUGGCUCUGGCUAGACUGCC [C3A C13G G22A G33C] is 0.08; for GGAAGAGCUCAAGACAGCCUGACAAAGUGACUGUCGCUAGACUGCC [C3A C13G G19C G22A G30A G35C] it is 0.21; for GGAAGAGCUCAACAGAGCUUGGCAAGGUGGCUGUGGCUAGUCUGCC [C3A C15G G19U A26G A41U] it is 0.04.

As for GGAAGAGUUCAACACAGCCUGGCAAAGUGGCUGUGGCUAGACUGCC [C3A C8U G19C], the self-cleavage is 0.15. To GGAAGAGCUAAACACAGCGUGGCAAAGUGGCUCUGGCUAGACUGCC [C3A C10A G33C] belongs 0.23.
